Results as given in patent EP0478545B1, “1,2,4-BENZOTRIAZINE OXIDES AS RADIOSENSITIZERS AND SELECTIVE CYTOTOXIC AGENTS” (SRI INTERNATIONAL, priority 1989, dated 1991).

Tested on: HA-1 cells
Experiment: Hypoxic versus aerobic cytotoxicity from survival curves of cells in suspension culture
Conditions: HA-1 cells in vitro

Row | Structure (SMILES) | differential cytotoxicity against hypoxic cells compared to aerobic cells
1 | CCN(CC)CCCNc1n[n+]([O-])c2ccccc2[n+]1[O-] [Compound 18a, 3-(3-N,N-diethylaminopropylamino)-1,2,4 benzotriazine 1,4-dioxide] | retaining the high differential cytotoxicity
2 | CCN(CC)CCNc1n[n+]([O-])c2cc([N+](=O)[O-])ccc2[n+]1[O-] [Compound 21, 7-nitro-3-(2-N,N-diethylaminoethylamino)-1,2,4-benzotriazine 1,4-dioxide hydrochloride] | retaining the high differential cytotoxicity

Counter-ions that a name gives are not always drawn.
